Results as given in PubChem BioAssay AID504832 (National Center for Advancing Translational Sciences (NCATS), 2011).
Out of some 310,000 compounds screened, about 18,000 (5.8%) were called active. Inconclusive results, whose numbers are uncertain, are shown with a selection of clear calls. Calls come from the whole dose curve; as a rule, active = well fitted inhibition curve with a large enough effect; inconclusive = small, poorly fitted or top-dose-only effect, or another doubt; inactive = no such curve, though single readings can be large or run the other way. Potencies of inconclusive entries are left out as doubtful fits.

experiment: Primary qHTS for delayed death inhibitors of the malarial parasite plastid, 48 hour incubation; details: P. falciparum luciferase growth in erythrocytes; series mostly up to 28.7 µM; activity change, negative = inhibition: at the top concentration
Summary of the method: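 Luciferase-expressing P. falciparum in infected erythrocytes (2% hematocrit, 0.1% parasitemia final) in RPMI 1640/0.5% Albumax were exposed to compound for 48 hours at 37 C, 5% CO2; growth read as luminescence.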
% is set by controls: 0 for no effect and ±100 for the full control effect; potency is the fitted concentration of half-maximal effect; tags give direction and shape of the fitted curve.

| Compound | Potency | activity change, negative = inhibition |
| --- | --- | --- |
| CCOC(=O)c1c(-c2ccc(OC)cc2)csc1NC(=O)CSc1ncnc2sccc12 | inconclusive [inhibitor, single point] |  |
| O=C(NCc1ccc2c(c1)OCO2)c1cccc(Cl)c1 |  | inactive: 29.2% |
| Cc1nnn(C23CC4CC(CC(CC(=O)Nc5ccc(C)c(Cl)c5)(C4)C2)C3)n1 | inconclusive [inhibitor, single point] |  |
| COc1ccc(-c2sc(Nc3ccccc3)n[n+]2-c2ccc(F)cc2)cc1Br | inconclusive [inhibitor, partial curve, poor fit] |  |
| COc1ccc2cc(/C=C3\SC(=S)NC3=O)c(N3CCOCC3)nc2c1 | inconclusive [inhibitor, partial curve] |  |
| COc1ccc(N2CCN(C3CCCN(C(=O)CN4CCCC4=O)C3)CC2)cc1 (stereo unspecified) |  | inactive: -2.26% |
| CCN(CC)S(=O)(=O)c1ccc(N2CCCCC2)c(NC(=O)C2=COCCO2)c1 | active: 1.85 µM |  |
| CN(Cc1ccccc1)Cc1nc2scc(-c3ccccc3)c2c(=O)[nH]1 | inconclusive [inhibitor, single point] |  |
| COCCN1C(=O)c2ccccc2C(C(=O)N2CCN(c3ccccc3)CC2)C1c1ccc(F)cc1 (stereo unspecified) | inconclusive [inhibitor, partial curve] |  |
| Brc1ccc(OCCn2ccnc2)cc1 | inconclusive [inhibitor, single point] |  |
| O=C(N/N=C/c1ccc(Br)cc1)c1ccc(F)cc1 | inconclusive [inhibitor, single point] |  |
| c1ccc(C2Nc3ccccc3Oc3ccccc32)cc1 (stereo unspecified) | active: 10.4 µM |  |
| CSc1cccc(NC(=O)C2C3C=CC4(O3)C2C(=O)N(CCN2CCOCC2)C4C(=O)NC2CCCCC2)c1 (stereo unspecified) |  | inactive: -12.2% |
| Cc1cccc(Cn2c(-c3ccc[nH]c3=O)nc3ccccc32)c1 |  | inactive: 11.6% |
| O=[N+]([O-])c1cc(Br)c(OCc2nnc(-c3ccccc3)o2)c(Br)c1 | inconclusive [inhibitor, single point] |  |
| CCOC(=O)c1c(NC(=O)CSc2nnc(C)s2)sc2c1CCC(C)C2 (stereo unspecified) | active: 11.7 µM |  |
| O=C(NCCCn1ccnc1)c1ccccc1Cl |  | inactive: -4.63% |
| COc1ccc(CCN(C)C(=O)CNC(=O)Cc2cccc3ccccc23)cc1OC |  | inactive: -9.7% |
| CCCOC(=O)CSc1nc(N2CCOCC2)c2c(c1C#N)CC(C)(C)OC2 | inconclusive [inhibitor, single point] |  |
| CCN(c1ccc(OC)cc1)S(=O)(=O)c1nnc(NC(=O)c2ccc(C)cc2)s1 |  | inactive: 14.8% |
| CC1(C(O)(C#CC[N+]2(C)CCCCC2)c2ccccc2)CCCC1 (stereo unspecified) | inconclusive [inhibitor, full curve] |  |
| CC[n+]1ccc(C[n+]2ccccc2)c2ccccc21 | inconclusive [inhibitor, full curve] |  |
| CCOc1cc(CNCCO)cc(Br)c1OCc1ccccc1Cl | active: 10.4 µM |  |
| COc1ccc(S(=O)(=O)N2CCOCC2)cc1NC(=O)Cc1coc2cc(C)c(C)cc12 | inconclusive [inhibitor, partial curve, poor fit] |  |

| Compound | Potency | activity change, negative = inhibition |
| --- | --- | --- |
| C[C@H](CCCC/C=C/C(=O)O)O[C@@H]1O[C@@H](C)[C@H](O)C[C@H]1O |  | inactive: -0.521% |
| Cc1nc2c(n1C1CCCCC1)C(=O)c1ccccc1C2=O | active: 1.85 µM |  |
| C=CCc1ccc(OCCOc2cccc3ccc(C)nc23)c(OC)c1 | inconclusive [inhibitor, single point] |  |
| CCC(C)OC(=O)C1=C(C)NC(=O)CC1c1ccccc1OC (stereo unspecified) | inconclusive [inhibitor, partial curve, poor fit] |  |
| Cc1ccc(C(c2nnnn2Cc2ccccc2)N2CC=C(c3ccc(F)cc3)CC2)cc1 (stereo unspecified) | inconclusive [inhibitor, single point] |  |
| CCn1cc(C(=O)N2CCN(c3ccccn3)CC2)c(=O)c2cc(S(=O)(=O)N3CCC(C)CC3)ccc21 | inconclusive [inhibitor, full curve, poor fit] |  |
| O=C(NC(=S)Nc1ccc(Br)cc1)C1CCC1 |  | inactive: 10.3% |
| Cc1ccc(CN(C)C(=O)c2ccccc2Oc2ccccc2)o1 | inconclusive [inhibitor, single point] |  |
| O=c1c(/C=N/N2CCOCC2)c(C(F)(F)F)[nH]n1-c1ccccc1 | inconclusive [inhibitor, partial curve, poor fit] |  |
| CC/C(=N/Nc1ccccc1C)c1cnnc(SC)n1 | active: 4.15 µM |  |
| Cc1oc(-c2ccccc2)nc1CN1C(=O)C(C)N=C(c2ccccc2F)c2cc(Cl)ccc21 (stereo unspecified) | inconclusive [inhibitor, partial curve, poor fit] |  |
| NS(=O)(=O)c1cccc(NC(=O)CC23CC4CC(C2)CC(CC(=O)Nc2cccc(S(N)(=O)=O)c2)(C4)C3)c1 | inconclusive [inhibitor, partial curve, poor fit] |  |
| COc1ccc(C2=NN(CN3C(=O)C(=O)c4ccccc43)C(c3ccc(OC)cc3)C2)cc1 (stereo unspecified) | inconclusive [inhibitor, single point] |  |
| COc1ccc(NC(=S)N(CCc2c(C)[nH]c3ccc(C)cc23)Cc2ccco2)cc1 |  | inactive: -9.88% |
| COc1ccc(C(=O)NC2CC2)cc1OC1CCN(Cc2ccccc2F)CC1 | inconclusive [inhibitor, partial curve, poor fit] |  |
| C(=N\Nc1nc(-c2ccccc2)cs1)/c1cccs1 |  | inactive: -79.3% |
| O=C(CSc1ccccc1)N1CCN(S(=O)(=O)c2ccccc2)CC1 | inconclusive [inhibitor, single point] |  |
| COc1ccc(OC)c(CN2CCN(Cc3cc(=O)oc4cc(O)ccc34)CC2)c1 | active: 3.7 µM |  |
| Cc1cccc(-n2c(C)nc3ccccc3c2=O)c1C |  | inactive: 8.89% |
| Cc1cc(Nc2ccc(F)c(F)c2)nc(-c2ccccc2O)n1 | inconclusive [inhibitor, single point] |  |
| C=CCn1c(SCC(=O)N2CCCC2)nc2cc(C(=O)NCC3CCCO3)ccc2c1=O (stereo unspecified) |  | inactive: -14% |
| O=C(CSc1nnc(-c2cccnc2)o1)Nc1cccc(F)c1 |  | inactive: 108% |
| CCc1nc(N2CCCCC2C)c2oc3ccccc3c2n1 (stereo unspecified) | inconclusive [inhibitor, single point] |  |
| Cc1ccc(NC(=O)CSc2nc(N)cc(=O)[nH]2)cc1Cl | inconclusive [inhibitor, partial curve, poor fit] |  |

| Compound | Potency | activity change, negative = inhibition |
| --- | --- | --- |
| COc1ccccc1C(c1c(N)n(C)c(=O)n(C)c1=O)C(C)[N+](=O)[O-] (stereo unspecified) | inconclusive [inhibitor, full curve, poor fit] |  |
| COc1ccc(OC)c(NC(=O)NCc2cccnc2)c1 |  | inactive: 11.3% |
| N#CC1=C(SCC(=O)c2ccccc2)NC2=C(C(=O)CCC2)C1c1ccco1 (stereo unspecified) | inconclusive [inhibitor, single point] |  |
| O=S(=O)(c1cc(Br)c(Cl)s1)N1CCCC1 | inconclusive [inhibitor, partial curve, poor fit] |  |
| O=C(CN1CCC(C(=O)c2ccc(Cl)cc2)CC1)NC1CCCC1 |  | inactive: -38.8% |
| COc1ccccc1C(=O)Nc1ccc2c(c1)CC1(C(=O)N(C)C(=O)N(C)C1=O)C1CCCN21 (stereo unspecified) | inconclusive [inhibitor, single point] |  |
| COc1ccc2[nH]c(C(=O)N3CCC(CO)(Cc4cccc(C(F)(F)F)c4)CC3)c(C)c2c1 | inconclusive [inhibitor, single point] |  |
| COc1cccc(N2CN(C3CCCCC3)CNC2=S)c1 |  | inactive: 2.53% |
| CC(C)=CCCC(C)CN1CCC(N2CCC(C(=O)N3CCOCC3)CC2)CC1 (stereo unspecified) | inconclusive [inhibitor, partial curve, poor fit] |  |
| Cc1ccc(NC(=O)N(Cc2ccco2)Cc2cc3cc(C)cc(C)c3nc2Cl)cc1 | inconclusive [inhibitor, single point] |  |
| CCOCCCNc1ccc(N2C(=O)C3CCCCC3C2=O)cc1[N+](=O)[O-] (stereo unspecified) |  | inactive: -1.37% |
| Cc1cc(Cl)ccc1OC(C)C(=O)N1CCCN(C(=O)C(C)Oc2ccc(Cl)cc2C)CC1 (stereo unspecified) | inconclusive [inhibitor, partial curve, poor fit] |  |
| Cc1nnc(NC(=O)CSc2ncnc3c2cnn3-c2ccccc2C)s1 |  | inactive: 3.57% |
| COc1ccccc1C(CNC(=O)c1ccc(-c2ccccc2Cl)o1)N1CCCC1 (stereo unspecified) | active: 14.7 µM |  |
| Cc1cccc(N(CC(=O)NCc2ccc3c(c2)OCO3)C(=O)CCC(=O)Nc2ccccn2)c1C | active: 5.86 µM |  |
| CCOc1ccc(CNc2ccc(N3CCCC3)cc2)cc1 | active: 1.85 µM |  |
| O=C(Cc1cccs1)NCCn1ccc2ccccc21 |  | inactive: -0.322% |
| O=C1C2CC(O)CN2C(=S)N1Cc1ccccc1 (stereo unspecified) | inconclusive [inhibitor, single point] |  |
| CN(C(=O)CCc1nnc(CCCCc2ccccc2)o1)C1CCOCC1 |  | inactive: -6.93% |
| CC1=C(C(=O)Nc2ccccc2C)C(c2ccc(C)o2)n2c(s/c(=C/c3ccccc3)c2=O)=N1 (stereo unspecified) | active: 2.94 µM |  |
| CCNC(=O)COC(=O)c1cc(S(=O)(=O)N2CCCCC2)ccc1C | inconclusive [inhibitor, partial curve, poor fit] |  |
| COc1cc(/C=N/Nc2nc(N3CCCC3)nc(N3CCCC3)n2)ccc1OCc1ccccc1F | inconclusive [inhibitor, single point] |  |
| C/C(=N\NC(=O)c1nnn(-c2nonc2N)c1CSc1ccc(Cl)cc1)c1ccco1 | inconclusive [inhibitor, full curve, poor fit] |  |
